Assay results from the supplement of paper PMC4967469.
The IC50 comes from the fitted curve, where viability falls to half of the control; where the fit passes the top or lowest dose, that dose stands as a limit. AUC is the area under the same curve over the 256-fold range up to the top dose, as a fraction: 1 means no effect, lower means more sensitive. For part of these data: An inferred top dose was calculated from the reported fits.

How the values were obtained:
Assay in all cases: Viability of human cancer cell lines after 72 h of drug (GDSC screen)
Trametinib = compound: CC(=O)Nc1cccc(-n2c(=O)n(C3CC3)c(=O)c3c(Nc4ccc(I)cc4F)n(C)c(=O)c(C)c32)c1 [Trametinib]; conditions: top dose 1 µM
Method: (§1)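 Human cancer cell lines in 384-well plates, medium with 10% serum, drug for 72 h over a 256-fold dose range (nine 2-fold or five 4-fold steps up to the top dose). Adherent lines were fixed and stained with the nucleic acid dye Syto60, suspension lines read with resazurin; signal relative to control wells, capped at 0 and 100%. One two-parameter sigmoid per drug and line, fitted in a mixed model over all curves with the slope shared within a line.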

PF-4708671 = compound: CCc1cncnc1N1CCN(Cc2nc3ccc(C(F)(F)F)cc3[nH]2)CC1 [PF-4708671]; conditions: top dose 10 µM; top dose inferred
Method: as §1

KIN001-244 = compound: O=C(NC(COc1ccc2[nH]c(=O)[nH]c2c1)c1ccccc1)c1cccn(Cc2ccc(F)c(F)c2)c1=O [KIN001-244]; conditions: top dose 20 µM; top dose inferred
Method: as §1

I-BET-762 = compound: CCNC(=O)C[C@@H]1N=C(c2ccc(Cl)cc2)c2cc(OC)ccc2-n2c(C)nnc21 [I-BET-762]; conditions: top dose 20 µM; top dose inferred
Method: as §1

AV-951 = compound: COc1cc2nccc(Oc3ccc(NC(=O)Nc4cc(C)on4)c(Cl)c3)c2cc1OC [AV-951]; conditions: top dose 0.128 µM; top dose inferred
Method: as §1

HG-6-64-1 = compound: CCN1CCN(Cc2ccc(NC(=O)c3ccc(C)c(/C=C/c4cnc5[nH]ccc5c4OC)c3)cc2C(F)(F)F)CC1 [HG-6-64-1]; conditions: top dose 5.12 µM; top dose inferred
Method: as §1

Cell Line	AUC (Trametinib)	IC50 (Trametinib)	AUC (PF-4708671)	IC50 (PF-4708671)	AUC (KIN001-244)	IC50 (KIN001-244)	AUC (I-BET-762)	IC50 (I-BET-762)	AUC (AV-951)	IC50 (AV-951)	AUC (HG-6-64-1)	IC50 (HG-6-64-1)
SCC-15 (head and neck, adherent)	0.373	24.7 nM	0.969	> 10000 nM	0.856	> 20000 nM	0.937	> 20000 nM	0.98	> 128 nM	0.829	4810 nM
SCC-25 (head and neck, adherent)	0.394	30.8 nM	0.98	> 10000 nM	0.785	9820 nM	0.942	> 20000 nM	0.982	> 128 nM	0.731	1610 nM
SF295 (glioma, adherent)	0.724	287 nM	0.913	> 10000 nM	0.882	> 20000 nM	0.95	> 20000 nM	0.978	> 128 nM	0.751	1810 nM
SJRH30 (rhabdomyosarcoma, adherent)	0.921	> 1000 nM	0.966	> 10000 nM	0.981	> 20000 nM	0.925	> 20000 nM	0.98	> 128 nM	0.8	2570 nM
SK-CO-1 (large intestine, adherent)	0.114	3.93 nM	0.97	> 10000 nM	0.936	> 20000 nM	0.96	> 20000 nM	0.988	> 128 nM	0.836	3130 nM
SK-HEP-1 (liver, adherent)	0.578	101 nM	0.975	> 10000 nM	0.897	> 20000 nM	0.983	> 20000 nM	0.989	> 128 nM	0.513	346 nM
SK-LU-1 (lung adenocarcinoma, adherent)	0.61	136 nM	0.968	> 10000 nM	0.901	> 20000 nM	0.951	> 20000 nM	0.98	> 128 nM	0.61	697 nM
SK-MEL-3 (melanoma, adherent)	0.333	19.7 nM	0.984	> 10000 nM	0.757	7910 nM	0.782	9820 nM	0.976	> 128 nM	0.771	2270 nM
SK-MEL-28 (melanoma, adherent)	0.112	< 3.91 nM	0.983	> 10000 nM	0.853	15100 nM	0.988	> 20000 nM	0.987	> 128 nM	0.958	> 5120 nM
